In the RNAGym collection of RNA variant scans (doi:10.7554/elife.90254):
The source gives no read counts; variants with many changes may rest on few reads.

B1: LINE1-mini (parent)
chain: GGCAGAGCUCAACACAGCGUGGCAAAGUGGCUGUGGCUAGACUGCC

Variants of: B1
Assay: self-cleavage, relative activity (ratio to wild type); higher = more cleavage; in vitro, sequencing; the parent is a self-cleaving ribozyme

Row | Variant | self-cleavage
1 | C8G G33U G36A | 0.02
2 | C8G G17U C18U G35A C42A | 0.07
3 | C8G A11U G17U G36A | 0.02
4 | C8G G19C G27C G35U G40A | 0.01
5 | C8G U20G G29C | 0.02
6 | C8G C13A C23A A41U | 0.07
7 | C8G C31G U38A | 0.02
8 | C8G C37A A39G | 0.02
9 | C8G U20C A26U C37U | 0.05
10 | C8G C10U G22A | 0.04
11 | C8G G19C G36A G40A | 0.02
12 | C8G C10A U32C C42G | 0.01
13 | C8G G19U A25C G36A C46U | 0.06
14 | C8G G27U C46G | 0.04
15 | C8G C13G A26C | 0.18
16 | C8G A11C G27A U43C | 0.02
17 | C8G A12G C13U U34G G36U | 0.02
18 | C8A U34A C45A | 0.19
19 | C8G C13U C18U G36U | 0.09
20 | C8G C13A A16U G22C A25C C37A | 0.01
21 | C8G G22A G40A | 0.08

Row | Variant | self-cleavage
22 | C8G U20A U38A | 0.07
23 | C8G C10G A11C A16C C42U | 0.01
24 | C8G C13U C23G G29C U32A | 0.04
25 | C8G A11G A25C A39G | 0.01
26 | C8A U34A C46U | 0.2
27 | C8A U20A C37U C42U | 0
28 | C8A U9A C23A A26U | 0.17
29 | C8G U9G G35U A39U | 0
30 | C8G G35U C46G | 0.06
31 | C8A U32A G40C G44C | 0.14
32 | C8G C13U U32C C42A | 0.07
33 | C8G A12G C18G G40U | 0.05
34 | C8A U34G C42U | 0.25
35 | C8G G22U C46U | 0.03
36 | C8G G19A G30C G40U | 0.05
37 | C8G G19A A24U U34A | 0.08
38 | C8G A14C G19A G29A C31A | 0.03
39 | C8G A26C U28G C31A | 0.01
40 | C8A U34G G44A | 0.68
41 | C8G G44A C46G | 0
42 | C8G C10U G27A G40A | 0.02

Row | Variant | self-cleavage
43 | C8G C13A G17A C23A | 0
44 | C8G A11U C13U A14G A24U | 0.03
45 | C8G A16U G19C G44C | 0.04
46 | C8G A16G G19U U20A G22A G35U G36C C45A | 0.28
47 | C8G C18A A26C G27A G35U | 0.11
48 | C8G C10A A12U G19A A26G A41C C42A C45A | 0
49 | C8G A24C U28C G33U C37A G40C | 0
50 | C8G C15A A25G G33C | 0.04
51 | C8G C13U A14G | 0.04
52 | C8G A12U A14U U28G U34A | 0.06
53 | C8G A16G C18G C23U A26C U34A | 0.02
54 | C8G C18A G40A C42G U43C | 0.14
55 | C8G U20A G35U | 0.06
56 | C8G G21A A24G A26U | 0.2
57 | C8G U20G G21U G29A C37A | 0.11
58 | C8G G17A A25U G27U | 0.01
59 | C8A U9G C10A C37A U43C | 0.03
60 | C8G G19A U38C | 0.07
61 | C8G U20G A26U U28C C46G | 0
62 | C8A U20G A24G C37A | 0.17
63 | C8A U20C G22C A25C A26C | 0.03

Row | Variant | self-cleavage
64 | C8G A26G G35A A41C | 0.07
65 | C8G G17A G44U | 0.14
66 | C8G C10G U20A G33A | 0
67 | C8G G21C A24U G35A | 0.05
68 | C8G A14G C18A G44U | 0.01
69 | C8G C15G G21U C31A C37U U38G | 0.07
70 | C8G A11G G33A | 0.03
71 | C8A U9A A25G C37G U43C G44C | 0.14
72 | C8G C15U G27A | 0.12
73 | C8G G40A C46G | 0.04
74 | C8A U28G G35A | 0.33
75 | C8G A11U C15A G21C | 0.01
76 | C8G U9A G22C | 0.17
77 | C8G C18U C37A A39G | 0.03
78 | C8G U20A G22C C31A U38G | 0.08
79 | C8A U9G G29C G30U C46G | 0.03
80 | C8G C10A C15G A24G | 0.03
81 | C8G A14G G29C | 0.01
82 | C8G A14C G29C U43A | 0.01
83 | C8A U9C G22U G27A | 0.11
84 | C8G G19C G36U A39G | 0
